In PubChem BioAssay AID743262 (National Center for Advancing Translational Sciences (NCATS), 2014):
Among all 1,300 compounds or so, about 25 (2%) were called active. Another 9% or so got no clear call; they are omitted. Calls come from the whole dose curve; as a rule, active = well fitted activation curve with a large enough effect; inconclusive = small, poorly fitted or top-dose-only effect; inactive = flat fitted curve, though single readings scatter. This is one part of the list.

molecular target: Glucagon-like peptide 1 receptor (Homo sapiens) (UniProt P43220); experiment: qHTS of GLP-1 Receptor Agonists: Hit Validation; details: HEK293 GLP-1R, cAMP-response luciferase, 4-6 h; series mostly up to 46.1 µM; activation: at the top concentration; note: % of control where 0% means no effect
Method in brief: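 HEK293 cells stably co-expressing a cAMP-responsive luciferase reporter and GLP-1R (hypersensitive receptor for weak agonists; wild-type line for confirmation) were plated 12 h at 37 °C, exposed to compound 4-6 h, then read by luminescence after 12 min detection reagent.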

Sequence of UniProt P43220 (P43220 whole entry, looked up): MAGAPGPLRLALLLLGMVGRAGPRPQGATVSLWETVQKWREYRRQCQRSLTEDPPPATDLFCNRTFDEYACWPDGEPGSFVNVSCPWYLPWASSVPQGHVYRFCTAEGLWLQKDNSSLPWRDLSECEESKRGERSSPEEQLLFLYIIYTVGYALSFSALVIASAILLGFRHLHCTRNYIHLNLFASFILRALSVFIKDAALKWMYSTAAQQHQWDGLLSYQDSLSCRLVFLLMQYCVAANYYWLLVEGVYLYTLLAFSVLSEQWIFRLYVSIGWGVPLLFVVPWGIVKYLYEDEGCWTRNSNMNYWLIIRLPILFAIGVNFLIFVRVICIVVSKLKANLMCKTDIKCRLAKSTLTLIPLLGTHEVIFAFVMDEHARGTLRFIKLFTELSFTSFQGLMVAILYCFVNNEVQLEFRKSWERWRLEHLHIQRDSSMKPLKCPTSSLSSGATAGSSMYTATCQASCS

activation, inactive:
CC1CCCCN1CCCOC(=O)c1ccccc1 (stereo not drawn) 6.43%
CCOC(=O)c1sc2nc(CC(=O)OC)nc(N(C)CCc3ccccn3)c2c1C 2.24%
Cc1ccccc1CN1CCC(CNc2ncnc3onc(-c4ccc(Cl)cc4)c23)CC1 1.69%
COC(=O)c1ccc(COC(=O)c2cccnc2Cl)cc1 3.57%
C[n+]1cnn2c1SCC1(COC1)C2 -1.66%
C/C(N)=C(/C#N)C(=O)CSc1nnc(Nc2cccc(C)c2)s1 0.189%
Cc1cc(C)nc(SCc2nnc(SCC(=O)OC3CCCCC3)o2)n1 17.3%
CCCOc1ccc(N/C=C/C(=O)c2ccc(OC)c(OC)c2)cc1 -0.343%
Cc1ccc(S(=O)(=O)N2CCC(C(=O)OCC(=O)N3CCc4ccccc43)CC2)cc1 -0.209%
CCn1nc(NC(=O)c2ccco2)c2cc3cc(C)ccc3nc21 0.893%
CC(C)Sc1ncc(S(=O)(=O)c2ccccc2)c(=O)[nH]1 0.143%
COc1ccc(CCNC(=O)c2cnn3cccnc23)cc1OC 0.676%
COc1cc(SC)ccc1C(=O)NCc1ccc(C)cc1 2.5%
CC12CCC(C(=O)NCc3ccc(F)cc3)(OC1=O)C2(C)C (stereo not drawn) -0.954%
Clc1ccccc1Nc1nc(NCC2CC2)nc2ccsc12 4.99%
COCCNc1nc2sc3c(c2c(=O)n1Cc1ccco1)CCCCC3 4.68%
NCCC1CCCC(CCN)N1 (stereo not drawn) 0.323%
COC(=O)CSc1nc2c(c(=O)n(C)c(=O)n2C)n1CCC(C)C 2%
S=C(NCCc1ccccc1)N/N=C/c1c(Cl)cccc1Cl 20.4%
COc1ccc(C(=O)NCCSCc2ccccc2Cl)cc1OC 5.99%
CCOC(=O)c1c(C)n(C)c2ccc(OC)c(NC(=O)CN3CCC4(CC3)OCCO4)c12 0.301%
O=[N+]([O-])c1ccc2c(c1)ncn2-c1ccccc1 2.61%
COc1ccc(-c2cc(NC=O)c3ncc(-c4ccc(C(C)=O)cc4)n3c2)cc1OC 25.4%
CC(C)(C)C1CCC(=O)N(CCOc2ccccc2)CC1 (stereo not drawn) -0.518%
COC(=O)c1c(NC(=O)Cc2cccs2)sc(C)c1C 5.78%
COc1cccc(/C=C/C(=O)Nc2ccc(N3CCOCC3)cc2)c1OC 0.215%
COc1ccc([N+](=O)[O-])cc1NCc1ccccc1 2.42%
Cc1nc(Nc2ccccc2)sc1C(=O)c1ccccc1 5.11%
COc1ccc(-c2cc(C(=O)N(C)Cc3ccccc3)no2)cc1OC 7.07%
c1coc(Cn2c(-c3ccco3)nc3ccccc32)c1 -0.487%
CCOc1ccc(-c2cc(C(=O)NCc3cc(C(F)(F)F)cc(C(F)(F)F)c3)[nH]n2)c(C)c1 0.302%
FC(F)(F)c1cc(Sc2ccccc2)nc(-c2ccccn2)n1 2.95%
CCc1ccc(CNc2ccc3c(c2)ncn3C(C)(C)C)cc1 5.3%
O=C(c1ccc(Br)o1)N(Cc1ccccc1)c1ccccn1 -0.613%
COc1ccc(-c2csc(C(C)(NC(C)=O)c3ccccc3)n2)cc1 (stereo not drawn) 5.87%
COc1cc(-c2nnc(SCc3ccccc3Cl)o2)cc(OC)c1OC 19.3%
COc1ccc(C2CC(c3cccs3)=NN2C(=O)COC(=O)c2cncc(Br)c2)cc1OC (stereo not drawn) 4.58%
COC(=O)c1ccc(CSc2nc(N)cc(N)n2)cc1 1.81%
COc1ccc(-c2csc(Cc3nnc(N4CCOCC4)n3-c3ccccc3)n2)cc1OC 0.371%
CCCCCCCSc1ncnc2[nH]ncc12 13.5%
OCCN(CCO)c1nc(N2CCCCC2)c2nc(N(CCO)CCO)nc(N3CCCCC3)c2n1 2.79%
Cc1nc(SC(C)C(=O)c2c(N)n(C)c(=O)n(C)c2=O)c2c(C)c(C)sc2n1 (stereo not drawn) 21.7%
C[C@]12CC[C@@H]3c4ccc(OC(=O)c5ccccc5)cc4CC[C@H]3[C@@H]1CC[C@@H]2O 8.63%
CCCc1nc2ccc(NC(C)=O)cc2c(=O)n1Cc1ccc(Cl)cc1 1.01%
Cc1nn(C)cc1CNC(=O)c1cnn2c(C(F)F)cc(C3CC3)nc12 10.2%
O=C(Nc1ccccc1F)c1ccc(COc2ccc(Cl)cc2Cl)o1 10.5%
COc1ccccc1NC(=O)COc1cccc2c1CCNC2=O 11.4%
COc1ccc(C(C#N)=Cc2cccc(OC)c2OC)cc1 4.09%
CCc1cc(=O)oc2c3c(cc(OCC(=O)Nc4cccnc4)c12)OC(C)(C)CC3 9.92%
Cc1cc(C)c2c(N)c(C(=O)NCC3CCCCC3)sc2n1 4.29%
C=CCn1c(SCC(=O)N2CCOCC2)nc2scc(-c3ccco3)c2c1=O 14.8%
COc1ccc(OC)c(S(=O)(=O)Nc2ccc(-c3ccc4nnc(C)n4n3)cc2)c1 10.5%
COc1ccc(S(=O)(=O)N2CCC[C@H]2C(=O)N2CCC[C@H]2C(=O)NCc2ccccn2)cc1C 0.306%
O=C(Nc1nnc(SCc2c(Cl)cccc2Cl)s1)C1CCCO1 (stereo not drawn) 7.19%
Cc1nc2cc(F)ccc2n1C1CCN(C(=O)c2ccc(F)cc2F)CC1 -0.482%
CC(C)CCNC(=O)NC(=O)COC(=O)C1CCN(S(=O)(=O)c2ccccc2F)CC1 -0.751%
Cc1nc(Cl)cc(N/N=C/c2ccc(O)cc2)n1 9.25%
Cc1cccc(Nc2nc(N)nc(CSC(=S)N3CCOCC3)n2)c1 3.18%
CCNC(=O)CCn1nc(-c2ccc(C)cc2)c2ccccc2c1=O -0.937%
CCC(C)Nc1nc2c(c(=O)[nH]c(=O)n2C)n1CCCc1ccccc1 (stereo not drawn) 2.03%
CCOc1ccc(-c2nc(CSc3nnc(C)s3)cs2)cc1OC 7.01%
CCOC(=O)c1c(-c2cccs2)csc1NC(=O)CN1CCOCC1 16.2%
Cc1snc(SCc2cccc(Cl)c2)c1C#N 0.198%
[O-][n+]1c2c(nn1-c1ccc(Cl)c(Cl)c1)-c1nonc1CC2 15.7%
COc1ccc(S(=O)(=O)Nc2ccc3oc4ncccc4c(=O)c3c2)cc1OC 2.91%
CCOC(=O)c1c(N)c(C#N)c2n1CCCC2 3.54%
COc1cc2c(cc1OC)/C(=C/C(=O)c1ccccc1F)NCC2 24.2%
O=c1[nH]nc(-c2ccc(NCCO)c([N+](=O)[O-])c2)c2ccccc12 13.2%
CCOc1ccc(N2CC(C(=O)Nc3ccncc3)CC2=O)cc1 (stereo not drawn) -0.582%
COc1ccc(Nc2nc(-c3sc(C)nc3C)cs2)c(OC)c1 11.7%
CCN(CC)c1ccc(C2=NNC(=O)CC2C)cc1[N+](=O)[O-] (stereo not drawn) 13.5%
COCCCNC(=O)COc1ccc(-c2nccc(-c3ccccn3)n2)cc1 1.79%
O=C1NC(=Nc2ccccc2Cl)S/C1=C\c1cccc([N+](=O)[O-])c1 5.05%
CCOC(=O)c1c(C)nc2ccccn12 1.88%
CCn1c(SCc2nc3ccccc3c(=O)[nH]2)nc2ccccc2c1=O 3.05%
COc1c(S(=O)(=O)N2CCCC2)ccc(Cl)c1Cl 7.06%
CCCCCCSc1cccc(-c2nc3ccc(Cl)cn3c2NCCCC)c1 -0.444%
CCc1ccc(CNC(=O)C2CCC(=O)N2C2CCCCC2)cc1 (stereo not drawn) -0.908%
COc1ccc(CCN(C)C/C=C/c2ccccc2[N+](=O)[O-])cc1OC 4.02%
CC(C)Cn1cnc2c(SCc3ccccc3F)nc(N)nc21 5.83%
O=C(CCN1C(=O)/C(=C\c2ccccc2)SC1=S)N1CCCCC1 -1.3%
COc1cc2[nH]cc(C(=O)NCCc3ccccc3)c(=O)c2cc1OC 5.56%
COc1ccc(CCNC(=O)CCn2c(=O)oc3ccccc32)cc1OC 0.807%
COc1ccc(-c2cc(N3C(=O)Nc4ccccc4N3O)n[nH]2)cc1 -1.22%
COc1ccc(-c2csc(Nc3ncccc3C)n2)cc1OC 18.5%
Cc1cc(C)nc(N2CCCC(C(=O)Nc3ccc4nc(C)c(C)nc4c3)C2)n1 (stereo not drawn) 2.27%
O=C(CCNc1ccc(F)cc1)c1cc2ccccc2o1 -0.528%
CN1CCN(c2nc(-c3cccc([N+](=O)[O-])c3)nc3ccccc23)CC1 15.3%
CCOC(=O)COc1ccc2c(=O)cc(-c3ccccc3)oc2c1 2.29%
CCC(C(=O)NC1CCCC1)N(Cc1cccs1)C(=O)Cn1nnc(-c2ccc(OC)c(OC)c2)n1 (stereo not drawn) 2.93%
COc1ccc(CN(C)CC(=O)Nc2cccc3ccccc23)cc1F 5.83%
COc1nc(Nc2ccc(OC)c(Cl)c2)nc(OC)n1 3.68%
COc1cc2c(cc1OC)CN(C(=O)Cc1ccccc1)CC2 1.65%
Cc1nn(CCC(=O)O)c2nc(-c3cccnc3)cc(C(F)(F)F)c12 0.27%
CN(C)NC(=O)c1ccsc1NC(=O)c1ccc(S(=O)(=O)N(C)C)cc1 0.0754%
COc1ccccc1/C=N/Nc1nc(C)cc(C)n1 -0.146%
CCN1CCN(C(c2cccnc2)c2cc(Cl)c3cccnc3c2O)CC1 (stereo not drawn) 13.2%
N=C1C(c2ccccc2)=C(O)CN1NC(=O)c1ccccc1 -0.663%
COc1ccc(C(=O)N2CCc3cc(OC)c(OC)cc3C2c2ccc(OC)c(OC)c2)cc1 (stereo not drawn) 11.9%
COc1ccc(/C=C2/N=C3CCCCCN3C2=O)cc1OC 7.1%
CCOc1ccc(C(=O)c2nc3c(n2O)CCCC3)cc1 -0.793%
COCCNc1nc(CSc2ccccc2)nc2sc(C)c(C)c12 9.75%
C/C(=N\NC(=O)C1CCCC1)c1ccc(C(C)C)cc1 4.5%
CC1CN(c2nc(Nc3ccccc3F)nc(N)c2[N+](=O)[O-])CC(C)O1 (stereo not drawn) 4.01%
c1ccc2c(c1)ccc1nnc(-c3ccc4c(c3)OCO4)n12 4.04%
COc1ccc(NC(=O)C2(C)CCN2Cc2ccc(OC)c3ccccc23)cc1OC (stereo not drawn) 17.8%
C[N+](C)(C)CC=O -0.968%
O=C(COc1ccc(Cl)cc1Cl)NCCCCc1ccccc1 3.11%
O=C(Nc1cccc(S(=O)(=O)NC2=NCCC2)c1)c1ccc(F)cc1F -1.65%
C=CCn1c2ccccc2c(=O)c2cc(C#CC3(O)CCCCC3)ccc21 19.5%
CSCCC(NS(=O)(=O)/C=C/c1ccccc1)C(=O)NCCc1ccc(S(N)(=O)=O)cc1 (stereo not drawn) -1.13%
CCNC(=S)/N=C(/Nc1ccccc1)Nc1nc(C)cc(C)n1 8.06%
Cc1ccc(C)c(N2N=C(C(=O)NCCN3C(=O)S/C(=C\c4cccnc4)C3=O)CCC2=O)c1 -0.677%
